According to PubChem BioAssay AID1030 (National Center for Advancing Translational Sciences (NCATS), 2008):
Values joined by “and” are separate entries in the source; they are usually repeats but may differ in a detail not shown here. Equal entries are not always repeated. In all, about 220,000 compounds went through this assay and about 16,000 (7.3%) were called active. Inconclusive results, whose numbers are uncertain, are shown with a selection of clear calls. Calls come from the whole dose curve; as a rule, active = well fitted inhibition curve with a large enough effect (not every such curve was filed as active); inconclusive = small, poorly fitted or top-dose-only effect, or another doubt; inactive = no such curve, though single readings can be large or run the other way. No potency is given beside an inconclusive call; the fits are too rough. Some structures have more than one record in an assay (separate samples or runs), and their calls can disagree.

These molecules were tested against Aldehyde dehydrogenase 1A1 (Homo sapiens) (UniProt P00352) (assay: qHTS Assay for Inhibitors of Aldehyde Dehydrogenase 1 (ALDH1A1)). Details: Purified ALDH1A1, NADH fluorescence, propionaldehyde substrate; series mostly up to 75.3 µM.
Sequence of UniProt P00352 (P00352 whole entry, looked up): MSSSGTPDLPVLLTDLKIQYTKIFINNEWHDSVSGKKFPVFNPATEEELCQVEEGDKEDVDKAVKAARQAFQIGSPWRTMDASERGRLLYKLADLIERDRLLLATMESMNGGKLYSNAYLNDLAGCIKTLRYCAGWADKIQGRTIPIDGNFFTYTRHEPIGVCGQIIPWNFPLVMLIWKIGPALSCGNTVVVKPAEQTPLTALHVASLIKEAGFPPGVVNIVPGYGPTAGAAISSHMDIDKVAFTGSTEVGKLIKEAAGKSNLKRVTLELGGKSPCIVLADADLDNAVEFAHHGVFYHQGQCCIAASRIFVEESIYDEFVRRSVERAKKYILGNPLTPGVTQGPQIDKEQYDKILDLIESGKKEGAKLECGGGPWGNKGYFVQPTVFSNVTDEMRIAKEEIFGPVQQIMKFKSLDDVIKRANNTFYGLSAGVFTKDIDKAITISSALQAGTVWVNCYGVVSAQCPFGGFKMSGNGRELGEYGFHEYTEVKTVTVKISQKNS
Potency is the fitted concentration of half-maximal effect; tags give direction and shape of the fitted curve.
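Throughout, for activity, negative = inhibition: plate controls were no enzyme wells and a reference inhibitor.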

Row | Structure (SMILES) | Potency | activity, negative = inhibition
1 | O=c1c(-c2ccc(Cl)cc2)nc2cnc(N3CCNCC3)nc2n1-c1ccccc1 | inconclusive [inhibitor, partial curve] | –
2 | CC(=O)NC1=NN(C(C)=O)C(C)(CS(=O)(=O)c2ccc3ccccc3c2)S1 (configuration not stated) | inactive | –
3 | CSCCC(NS(=O)(=O)c1ccc(Cl)cc1)C(=O)OCC(=O)NC1CCCCC1 (configuration not stated) | inactive | –
4 | CCCn1c(CCC(=O)O)ccc1-c1ccccc1 | inconclusive [inhibitor, single point] | –
5 | CC[C@H](NC(=O)c1c(C)c(-c2ccccc2)nc2ccccc12)c1ccccc1 | active: 15.8 µM and active: 5.01 µM | –
6 | CCC1Oc2ccc(C)cc2N(CC(=O)N(Cc2ccncc2)Cc2ccco2)C1=O (configuration not stated) | inconclusive [inhibitor, single point] | –
7 | C[C@@H](N)C1CCC(C(=O)Nc2ccncc2)CC1 (some centres not stated) | inactive | –
8 | NCC(O)(CS(=O)(=O)O)c1ccc(Cl)cc1 (configuration not stated) | inactive | –
9 | CC(=O)OC[C@H]1O[C@@H](CCO/N=C2/[C@H]3O[C@@H]3[C@@H](O)[C@H]3[C@H]2CCn2c(=O)n(-c4ccccc4)c(=O)n23)C=C[C@@H]1OC(C)=O | – | inactive: -0.569% [at 13.5 µM]
10 | C[C@]1(C(=O)O)C=C[C@@H](Cc2ccccc2)N1C(=O)c1ccccc1 | inactive | –
11 | COCCCn1c2nc3ccccc3nc2c2c(=O)n(Cc3ccc(Cl)cc3)cnc21 | inconclusive [inhibitor, single point] | –
12 | Cc1ccc(/C=C2/Sc3ccccc3N(CC(=O)NCCCOC(C)C)C2=O)cc1 | inactive | –
13 | C#CCNC(=O)C1=C[C@H](c2ccc3c(c2)OCO3)C[C@H](OCc2ccc(CO)cc2)O1 | active: 28.2 µM | –
14 | O=C(c1ccc(Br)s1)N1CCN(C/C=C/c2ccccc2)CC1 | active: 17.8 µM | –
15 | COc1ccc(N(CC(=O)Nc2ccc(S(=O)(=O)N3CCCC3)cc2)S(C)(=O)=O)cc1OC | inconclusive [inhibitor, single point] | –
16 | Cc1nn(C)c(C)c1CN(C)C(=O)c1cc2nc(-c3ccco3)cc(C(F)(F)F)n2n1 | inconclusive [inhibitor, partial curve] | –
17 | O=C(COC(=O)c1cccs1)NC12CC3CC(CC(C3)C1)C2 | inconclusive [inhibitor, partial curve] | –
18 | O=C(NCc1ccc(F)cc1)C1CCCN(c2nc3ccsc3c(=O)s2)C1 (configuration not stated) | inconclusive [inhibitor, single point] | –
19 | O=C(Nc1ccccc1Oc1ccccc1)c1cc([N+](=O)[O-])ccc1Cl | inconclusive [inhibitor, single point] | –
20 | CCOC(=O)c1c(NC(=O)c2ccoc2C)sc(C(=O)N(C)C)c1C | active: 20 µM | –
21 | CCN(CC)S(=O)(=O)c1ccc(N2CCOCC2)c(C(=O)O)c1 | inactive | –
22 | COc1cc2c(cc1OC)-c1n[nH]c(=S)n1C(C)(C)C2 | inconclusive [inhibitor, partial curve] | –
23 | COc1ccccc1-c1nc(SCC(=O)N(C)c2ccccc2)c2c(=O)n(C)c(=O)n(C)c2n1 | inactive | –
24 | CCCCCCCCCCCCOCC1CO1 (configuration not stated) | inconclusive [inhibitor, single point] | –
25 | CC(=O)n1c2ccccc2c2c1c1ccccc1n2C | inconclusive [inhibitor, partial curve] | –
26 | CCOc1nc(-c2ccc(OC)cc2)ccc1-c1noc(C)n1 | inconclusive [inhibitor, partial curve] | –

Row | Structure (SMILES) | Potency | activity, negative = inhibition
27 | CCN1C(=O)CC(NCc2ccc3c(c2)OCO3)C1=O (configuration not stated) | inactive | –
28 | CN1CCN(C2CCCCCC2)CC1 | inactive | –
29 | Cc1ccc(C)c(S(=O)(=O)N2CCCOC2CNC(=O)C(=O)NCc2cccnc2)c1 (configuration not stated) | inactive | –
30 | CN(C)N1C(N)=C(C#N)C(c2ccsc2)C2=C1CCCC2=O (configuration not stated) | inactive | –
31 | O=C(/C=C/c1c(F)cccc1Cl)Nc1ncccn1 | inactive | –
32 | CCSc1ccc(-c2nn(-c3ccccc3)cc2/C=C(/C#N)C(=O)NC)cc1 | inconclusive [inhibitor, partial curve] | –
33 | N=c1oc2ccccc2cc1-c1nc(-c2ccccc2)cs1 | inconclusive [inhibitor, full curve] | –
34 | COc1cc(OC)cc(C(=O)N2c3ccc(F)cc3CCC2C)c1 (configuration not stated) | inconclusive [inhibitor, partial curve] | –
35 | COc1ccc(C2C(C(=O)NCC3CCCO3)CCC(=O)N2c2ccc3c(c2)OCO3)cc1 (configuration not stated) | active: 14.1 µM | –
36 | Cc1ccccc1OCC(=O)NC(=S)Nc1ccc(N2CCOCC2)c(Cl)c1 | inconclusive [inhibitor, single point] | –
37 | CC(=O)c1cccc(-n2c(CCC(=O)O)ccc2-c2cccs2)c1 | active: 7.94 µM | –
38 | CCSc1nnc(NC(=O)CSc2nc3c(c(=O)n2-c2ccccc2)SCC3)s1 | inconclusive [inhibitor, single point] | –
39 | Cc1ccc(NC(=S)N(CCCN2CCOCC2)Cc2ccccn2)cc1 | inactive | –
40 | Cc1cc(OCC(=O)Nc2cnn(CCCC(=O)O)c2)ccc1[N+](=O)[O-] | inactive | –
41 | COc1ccc(C2NC(Cc3ccccc3)(C(=O)O)C3C(=O)N(c4ccccc4OC)C(=O)C23)cc1 (configuration not stated) | inconclusive [inhibitor, single point] | –
42 | CCOC(=O)c1[nH]c2ccc(OCC)cc2c1NC(=O)CN1CCN(c2ccccn2)CC1 | inconclusive [inhibitor, single point] | –
43 | COc1ccc(NC(=S)N2CCC(N(C)CC3CCCO3)CC2)cc1Cl (configuration not stated) | inactive | –
44 | Clc1ccc(CSC2=NCCN2)cc1Cl | – | inactive: -3.39% [at 13.5 µM]
45 | O=c1[nH]c(SCc2ccccc2Cl)nc2c1CCC2 | inactive | –
46 | Cc1ccc(-c2nnn(CC(=O)N3CCCCC3)n2)c(-n2cnnn2)c1 | inconclusive [inhibitor, single point] | –
47 | O=C(NCCCN1CCN(CCCNC(=O)c2ccccc2F)CC1)c1ccccc1F | inactive | –
48 | COc1ccc(/C=C/CN2CCCC(C(=O)c3ccc(OC)c(F)c3)C2)cc1 (configuration not stated) | inconclusive [inhibitor, single point] | –
49 | O=C(COC(=O)CCC(=O)c1ccc(Cl)cc1)NCCc1ccccc1 | inactive | –
50 | NC(=O)[C@@H]1CCCNC1 | – | inactive: 4.89% [at 13.5 µM]
51 | O=C(O)c1cc(N=Nc2ccc([N+](=O)[O-])cc2)ccc1O | active: 22.4 µM | –
52 | COC(=O)c1ccc2c(=O)n(-c3ccccc3)c(=S)[nH]c2c1 | inconclusive [inhibitor, partial curve] | –

Row | Structure (SMILES) | Potency | activity, negative = inhibition
53 | O=C(Nc1cc2c3c(c1)C1CCCC1CN3CC1CCCC21)c1ccccc1 (configuration not stated) | inconclusive [inhibitor, single point] | –
54 | CCc1ccccc1NC(=O)CCN1C(=O)C2C3CCC(C3)C2C1=O (configuration not stated) | inconclusive [inhibitor, single point] | –
55 | CCN(CC)S(=O)(=O)c1cc(C(=O)Nc2cccnc2)ccc1Cl | active: 4.47 µM | –
56 | C/C=C/CSc1nc2c(c(=O)[nH]c(=O)n2C)n1CCC | inconclusive [inhibitor, single point] | –
57 | CCOc1ccc(NC(=O)N2CCC(NC(=O)C(Cc3ccc(OC)c(OC)c3)NC(C)=O)CC2)cc1 (configuration not stated) | active: 0.0562 µM | –
58 | COc1ncc2nc(C)c(=O)n(Cc3cccs3)c2n1 | inactive | –
59 | CCOC(=O)C1CCN(C(=O)c2sc3nc(-c4ccccc4)cn3c2C)CC1 | inactive | –
60 | CNc1nc(-c2ccc3c(c2)CCN3C(=O)c2ccccc2F)cs1 | active: 25.1 µM | –
61 | Cc1cc(=O)n(C)c(=O)n1CC(=O)N1CCCCCC1 | inconclusive [inhibitor, single point] | –
62 | NC(=O)COC(=O)c1c2c(nc3ccccc13)CCCCC2 | inconclusive [inhibitor, single point] | –
63 | CC(/C=C/c1ccco1)=N\NC(=O)COc1ccc(C)c(C)c1 | active: 3.55 µM | –
64 | O=C(C(Cc1ccccc1)N1C(=O)c2ccccc2C1=O)N1CCc2ccccc21 (configuration not stated) | inactive | –
65 | O=C1CC(C(=O)N(c2ccc(F)cc2)C(C(=O)NC2CCCC2)c2ccccn2)CS1 (configuration not stated) | inactive | –
66 | Cc1onc(-c2ccccc2Cl)c1C(=O)Nc1ccccc1N1CCOCC1 | inconclusive [inhibitor, partial curve] | –
67 | COc1cccc(/C=N\NC(=O)Cn2nnc3ccccc32)c1O | inactive | –
68 | COc1ccc(-c2oc3ccc(C)cc3c(=O)c2O)cc1OC | inconclusive [inhibitor, single point] | –
69 | COc1ccc(-c2nnc(-c3cccs3)o2)cc1OC | inconclusive [inhibitor, partial curve] | –
70 | CCOc1ccc(C(=O)CCc2nc3ccccc3s2)cc1 | inactive | –
71 | COc1ccc(-c2cc(C(F)(F)F)nc(SCC(=O)N3CCOCC3)n2)cc1OC | inconclusive [inhibitor, partial curve] | –
72 | O=C(CCNc1cccc(Cl)c1)c1cccs1 | active: 1.26 µM | –
73 | O=C(NC1CCCCCC1)c1cc(S(=O)(=O)N2CCCCC2)ccc1N1CCOCC1 | inconclusive [inhibitor, single point] | –
74 | COc1ccccc1N1N=C(c2cccs2)CC1c1ccccc1 (configuration not stated) | inconclusive [inhibitor, partial curve] | –
75 | c1ccc(Oc2cccc(CN3CCOCC3)c2)cc1 | inconclusive [inhibitor, single point] | –
76 | C/[N+]([O-])=C1\Cc2ccccc2C1=O | active: 3.55 µM | –
77 | COc1cccc(N(CC(=O)Nc2cccc(C(C)=O)c2)S(C)(=O)=O)c1 | inconclusive [inhibitor, single point] | –
